Experimental findings from ChEMBL document CHEMBL4888484, “Replenishing the malaria drug discovery pipeline: Screening and hit evaluation of the MMV Hit Generation Library 1 (HGL1) against asexual blood stage Plasmodium falciparum ,using a nano luciferase reporter read-out” (2022) are described below.

In all, about 150,000 compounds went through this assay and about 540 (0.36%) showed an effect of 50% or more. This is one part of the list.

A word on the % Inhibition: it is the relative decrease from the control value, in per cent.

The test concerns Plasmodium falciparum. The experiment in a line: Primary screen in NF54 nanoGlo assay, in single point, at 2uM, 72h; a lower Z score goes with more inhibition. It counts as functional, Erythrocyte. The following applies: timepoint 72 hour.
Regarding `Cc1cccc(C)c1NC(=O)CN1CN(c2cccc(F)c2)c2ncccc2S1(=O)=O`, the “% Inhibition” value was -15% and the Z score is listed as 1.6.
Consider `CCn1c(-c2cc(NC(=O)Cc3ccccc3C)[nH]n2)cc2c(OC)cccc21`, for which the “% Inhibition” value is 1% and the Z score is on record as -0.13.
In the case of `N#Cc1ccc(C(=O)NCCCc2nnc3ccccn23)cn1`, the “% Inhibition” value is -18% and the Z score was found to be 3.43.
For the molecule `NC[C@H]1Cc2cccc(-c3ccc4[nH]ncc4c3)c2O1`, the “% Inhibition” value was -2% and the Z score stood at 0.24.
As for `CCN(CC)S(=O)(=O)c1cc(C)c(C)c(NCc2cc3n(n2)CCCC3)c1`, the “% Inhibition” value is recorded as -2% and the Z score was 0.49.
Take `C[C@H]1Cc2ccccc2N1C(=O)CN1CCN(Cc2ccccc2F)CC1`: the “% Inhibition” value was 24% and the Z score is -3.05.
In the case of `Cc1ncsc1C(=O)N1CC2CC1CS2(=O)=O` (stereo unspecified), the “% Inhibition” value is on record as -4% and the Z score came to 0.82.
In the case of `Cc1ccc2c(=O)n([C@@H](C)c3c(C)nn(C)c3C)cnc2c1C`, the “% Inhibition” value is listed as 1% and the Z score was -0.18.
In the case of `CCC(NC(=O)N(C)C(C)CS(C)(=O)=O)c1cccc(Cl)c1` (stereo unspecified), the “% Inhibition” value amounted to 0% and the Z score came out at 0.01.
Turning to `CC(C)(C)C1CNC(=O)C1C(=O)NCCCn1ncccc1=O` (stereo unspecified), the “% Inhibition” value was determined as 6% and the Z score is reported as -0.95.
As for `CCOC(=O)c1cc(NC(=O)C(C)(C)NC(=O)OC(C)(C)C)c(F)cc1C`, the “% Inhibition” value stood at 35% and the Z score was -5.05.
With `O=C(CCc1cccs1)N(Cc1cncs1)Cc1cncs1`, the “% Inhibition” value was -6% and the Z score was 1.14.
For `Cc1cnc(OC2CCN([C@@H](C(=O)O)c3ccsc3)CC2)nc1`, the “% Inhibition” value came to 9% and the Z score is given as -1.25.
Regarding `CCN1C(=O)c2ccc(Cl)cc2NC12CCC(O)CC2` (stereo unspecified), the “% Inhibition” value came to 1% and the Z score is recorded as -0.12.
The corresponding values for `CCN1C(=O)C(=O)N(CC(=O)N2CCN(c3cccc(Cl)c3)CC2)C1=O` are -11% and 1.47.
As for `COc1ccc(-c2cc3n(n2)CCC(=O)N3CC(=O)NCCCN2CCOCC2)cc1`, the “% Inhibition” value was -4% and the Z score is 0.39.
The corresponding values for `Cc1cc(S(N)(=O)=O)ccc1Cl` are -7% and 1.34.
`CC1CCN(C(=O)CCc2nc([C@@H]3CCCN3S(C)(=O)=O)no2)CC1`: the “% Inhibition” value was -14% and the Z score worked out at 1.61.
Consider `CC(C)(CNC(=O)NCCC1CCCC1)C(N)=O`, for which the “% Inhibition” value is listed as -6% and the Z score stood at 0.74.
The corresponding values for `O=C(c1cc2ccccc2s1)N1CCCc2ccccc21` are -5% and 0.98.
With `Cc1ccc(-c2cc(C)c(=O)n(C)c2)o1`, the “% Inhibition” value came to 3% and the Z score was -0.6.
Consider `Nc1cnn(-c2cnc3ccccc3n2)c1`, for which the “% Inhibition” value is 10% and the Z score was -1.13.
On the same counts, the results for `Cc1nsc(C(=O)N2CCN(c3ncccn3)CC2)n1` are -15% and 2.28.
As to `COc1cc(CN2CCC(F)(F)CC2)ccc1OC[C@@H](O)CN1CCOCC1`, the “% Inhibition” value is listed as -16% and the Z score is on record as 1.49.
Take `O=C(c1cnns1)N1CCN(Cc2nnc3n2CCCCC3)CC1`: the “% Inhibition” value is listed as -3% and the Z score was determined as 0.27.
As to `COCc1noc(CN2CC[C@H](NC(=O)c3ccccc3)[C@@H](O)C2)n1`, the “% Inhibition” value is recorded as -9% and the Z score was 1.64.
In the case of `Cc1ccc(-n2nc3c(N4CCCC4)nnc(C)c3c2C)cc1`, the “% Inhibition” value is -29% and the Z score was 3.39.
Take `CN1CCO[C@@H](CNC(=O)c2cccc(NC(=O)c3ccco3)c2)C1`: the “% Inhibition” value is -11% and the Z score came out at 1.41.
The corresponding values for `C#Cc1cccc(NC(=O)N2CC(S(=O)(=O)c3ccccc3F)C2)c1` are -12% and 1.18.
In the case of `O=C(c1ccc2c(c1)OCO2)N1CC(S(=O)(=O)C2CCCCC2)C1`, the “% Inhibition” value was -13% and the Z score amounted to 1.7.
On the same counts, the results for `CCN(CC)S(=O)(=O)c1ccc(O)c(NC(=O)C(=O)c2cnn(C)c2)c1` are -6% and 0.88.
As for `CCCOc1cccc(CN(C)[C@H]2CCN(S(C)(=O)=O)C2)c1`, the “% Inhibition” value worked out at 2% and the Z score is listed as -0.22.
Take `CC1(C2CCN(c3cc(-n4ccnc4)ncn3)CC2)OCCO1`: the “% Inhibition” value is -6% and the Z score was 0.87.
Regarding `COc1cccc(NS(=O)(=O)c2ccc(-c3[nH]ncc3C(=O)N3CCCCC3)o2)c1`, the “% Inhibition” value is on record as -16% and the Z score is 1.85.
On the same counts, the results for `O=C(c1cc(-c2ccco2)n[nH]1)N1CC[C@H](c2ncon2)C1` are -17% and 3.14.
`CC(NC(=O)C(Cc1ccccc1)NS(=O)(=O)c1ccccc1F)c1ccc2c(c1)OCCO2` (stereo unspecified): the “% Inhibition” value was determined as 4% and the Z score is given as -0.58.
`CCOC(=O)c1[nH]c(C2CCN(c3nccs3)CC2)nc1C`: the “% Inhibition” value was -1% and the Z score is reported as 0.1.
As to `O=C(NCC1COCCO1)NC[C@@H]1Cc2ccccc2CO1` (stereo partly specified), the “% Inhibition” value is on record as -20% and the Z score is on record as 2.12.
In the case of `Cc1sc2ccccc2c1CN1C[C@@H]2C(=O)NC[C@]2(C(=O)O)C1`, the “% Inhibition” value is -3% and the Z score stood at 0.58.
Turning to `CCC1(CC)CNC(=O)[C@H]1NC(=O)c1ccnnc1C`, the “% Inhibition” value is 7% and the Z score is listed as -0.81.
For `COc1ccc2c(c1)[C@@H](NC(=O)c1cc3n(n1)CCNC3)CC(C)(C)O2`, the “% Inhibition” value was 7% and the Z score was -1.02.
The corresponding values for `N#Cc1c2n(c3c(=O)n(Cc4ccccc4Cl)cnc13)CCCC2` are -13% and 2.47.
For the molecule `O=S(=O)(Nc1ccc(Cl)cc1)c1cnn(-c2ccc(C(F)(F)F)cn2)c1`, the “% Inhibition” value is on record as -2% and the Z score is listed as 0.27.
The corresponding values for `COc1cccc2c1NC(=O)[C@@H]1C[C@@H](N(C)C)CN1C2=O` are -17% and 2.33.
Regarding `COc1ccccc1N1CCN(C(=O)c2cc3ccsc3n2Cc2ccccc2F)CC1`, the “% Inhibition” value is -11% and the Z score was found to be 1.52.
In the case of `Cc1cc(C)nc(O[C@H]2CC[C@H](NC(=O)c3cccnc3)CC2)n1`, the “% Inhibition” value is given as -7% and the Z score turned out to be 0.85.
The corresponding values for `CCN(Cc1noc(CC(C)C)n1)C(=O)c1cc(C)n2nc(C)cc2n1` are -5% and 0.94.
`Cc1cc(C2(c3cc(C)c(NC(=O)CN4CCOCC4)c(C)c3)CCCCC2)cc(C)c1NC(=O)CN1CCOCC1`: the “% Inhibition” value is reported as 9% and the Z score is -1.14.
For the molecule `C[C@@H](c1ccccc1)N(CC(=O)NCC#N)CC1CCC1`, the “% Inhibition” value is -6% and the Z score amounted to 0.91.
The corresponding values for `O=C(NCCc1cnccn1)N1C2C=C(c3ccccc3)CC1CC2` (stereo unspecified) are -7% and 0.83.
`O=C1C[C@H](c2nc(-c3ccc4[nH]cnc4c3)no2)CN1C1CC1`: the “% Inhibition” value was -12% and the Z score is 2.27.
As for `CC1(C)C[C@]1(C(=O)N1CCC(c2cc(O)ncn2)CC1)c1ccccc1F`, the “% Inhibition” value is recorded as -10% and the Z score is on record as 1.03.
In the case of `Cc1ccc(C(N)=O)cc1-c1ccc(C(=O)N(C)[C@H]2CCOC(C)(C)C2)cc1`, the “% Inhibition” value is reported as -9% and the Z score is reported as 1.62.
